Measurements taken from PubChem BioAssay AID504706 (National Center for Advancing Translational Sciences (NCATS), 2011).
In all, about 320,000 compounds went through this assay and about 200 (0.062%) were called active. Inconclusive results, whose numbers are uncertain, are shown with a selection of clear calls. The call rests on the fitted dose curve; in most records, active means well fitted activation curve with a large enough effect; inconclusive means small, poorly fitted or top-dose-only effect; inactive means no such curve, though single readings can be large or run the other way. Potencies of inconclusive entries are left out as doubtful fits.

experiment: qHTS assay for re-activators of p53 using a Luc reporter; details: H1299 p53-A138V BP100-luciferase reporter, luminescence, 24 h; series mostly up to 92.2 µM; further: nearly all actives have a fitted effect of over 45% in size
Summary of the method: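 H1299 (p53-null), stable ts p53-A138V + BP100-Luc; 1000 cells/well, Opti-MEM/10% FBS; cpd 4 pt, 1:5; 24 h, 37 deg C, 5% CO2; detection reagent 10 min RT; luminescence.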
Potency means the concentration at half of the fitted maximal effect; tags describe the fitted curve by direction and shape.

SMILES	Potency
Cn1c(SCC(=O)c2ccccc2)nnc1-c1ccco1	inconclusive [activator, partial curve, poor fit]
Cc1cccc(-c2nsc(SCC(=O)Nc3ccc4c(c3)OCO4)n2)c1	inconclusive [activator, full curve, poor fit]
C/C(CC(=O)Nc1ccc(Cl)cc1Cl)=N\NC(=O)c1ccco1	inconclusive [activator, single point]
Cc1ccc(SC(CC(=O)c2ccc(F)cc2)C(=O)O)cc1 (centres undefined)	inconclusive [activator, partial curve, poor fit]
COC(=O)Cc1csc(Nc2ccccc2)n1	inconclusive [activator, partial curve, poor fit]
c1ccc2c(c1)nc(Nc1ccc(N3CCCCC3)cc1)c1nncn12	inactive
COc1cccc(NC(=O)CSc2nnc(-c3cc(-c4ccccn4)nc4ccccc34)o2)c1	inconclusive [activator, single point]
Cc1ccc(NC(=O)C2=C(C(=O)O)CCCC2)cc1F	inconclusive [activator, partial curve, poor fit]
Fc1cccc(/C=N/NC(=S)Nc2ccccc2Cl)c1	inconclusive [activator, partial curve, poor fit]
Cn1c(N/N=C/c2cccs2)cc(=O)n(C)c1=O	inactive
Cc1ccc(O)c(CC(C)C)n1	inactive
CC(C)(C)c1ccc(C(=O)Nn2cnnc2)cc1	inconclusive [activator, single point]
CC(C)C(C(=O)O)N1C(=O)/C(=C/c2cccn2C)SC1=S (centres undefined)	inactive
O=C(CN1CCC(NC(=O)Nc2ccccc2-c2ccccc2)CC1)NCc1ccco1	inconclusive [activator, single point]
Cc1cc(/C=C(\C#N)C(=O)Nc2ccc(F)cc2)c(C)n1-c1ccc(N2CCOCC2)c([N+](=O)[O-])c1	inactive
CC(=O)Nc1cccc(NC(=O)CSc2nnc(NC(=O)c3ccco3)s2)c1	inactive
O=C(NCCS(=O)(=O)N1CCN(c2ccc(F)cc2)CC1)c1ccco1	inactive
O=C(/C=C/c1ccccc1)NCCOc1ccccc1	inconclusive [activator, partial curve, poor fit]
COc1ccc(/C(N)=N/OC(=O)COc2ccccc2Cl)cc1	inconclusive [activator, partial curve, poor fit]
Cc1cccc(-c2ccc3ncnc(NCc4cccnc4)c3c2)c1	inconclusive [activator, single point]
O=c1c(Cc2ccccc2)c(O)ccn1CCc1cnc[nH]1	inactive
N#Cc1ccccc1OCC(=O)Nc1ccc2c(c1)OCCCO2	inconclusive [activator, partial curve, poor fit]

SMILES	Potency
Cc1cc2nc3c(=O)n(C4CCCCC4)c(=O)[nH]c3nc2cc1N	inconclusive [activator, single point]
Cc1cc(=O)[nH]c(SCC(=O)c2ccc(F)c(C)c2)n1	inconclusive [activator, single point]
O=C(c1cccc(S(=O)(=O)Nc2ccccc2Cl)c1)N1CCN(c2ccccc2O)CC1	inactive
Cc1ccccc1OCC(=O)OCC(=O)c1ccc(OCc2ccccc2)cc1	inconclusive [activator, partial curve, poor fit]
COc1ccc(NC(=O)c2cc(-c3ccco3)on2)cc1	inconclusive [activator, partial curve, poor fit]
Cc1cccc(/C=N/n2c(-c3ccccn3)n[nH]c2=S)c1	inconclusive [activator, partial curve, poor fit]
O=C(NCc1ccccc1CN1CCCC1)c1cccc(S(=O)(=O)Nc2ccc(F)cc2)c1	inconclusive [activator, single point]
C=CCNC(=S)Nc1sc2c(c1C(=O)OCC)CC(C)(CC)OC2 (centres undefined)	inconclusive [activator, single point]
CC(C)Nc1nc(-c2ccccc2)nc(-n2ccnc2)n1	inconclusive [activator, partial curve, poor fit]
Cc1cccc(N=C2NC(=O)/C(=C\c3cccs3)S2)c1	inconclusive [activator, single point]
Cc1nc(SCC(=O)c2c[nH]c3ccccc23)n[nH]1	inconclusive [activator, single point]
Cc1ccc(CNC(=O)COc2ccc(C(=O)c3ccc(F)cc3)cc2)cc1	inconclusive [activator, full curve, poor fit]
Cc1nn(-c2ccccc2)c(C)c1NC(=O)COC(=O)c1ccc(O)cc1O	inactive
COc1c(O)cc(O)c2c(=O)cc(-c3ccccc3)oc12	inconclusive [activator, partial curve, poor fit]
O=C(CSc1ccc(Cl)cc1)N1CCCC1	inactive
O=C1CC(/C=C/c2ccncc2)=Nc2ccccc2N1	inactive
CC(=O)Nc1ccc(-c2nc3c(C)cccc3[nH]2)cc1	inconclusive [activator, full curve, poor fit]
CCCCCN=C(C)c1c(O)c2ccccc2oc1=O	inconclusive [activator, partial curve, poor fit]
O=C(Nc1cccc(S(=O)(=O)N2CCCCC2)c1)c1ccc(S(=O)(=O)C(F)F)cc1	inactive
C/C(N)=C(/C#N)C(=O)CSc1nc2scc(-c3ccccc3)c2c(=O)n1C	inactive
C=CCOC(=O)C1=C(C)OC(N)=C(C#N)C1c1ccc2c(c1)OCO2 (centres undefined)	inconclusive [activator, single point]
CC1=NN(c2ccccc2)C(=O)/C1=C\c1cc(C)n(-c2ccccc2)c1C	inconclusive [activator, full curve, poor fit]
